Laboratory results reported in PubChem BioAssay AID588855 (National Center for Advancing Translational Sciences (NCATS), 2011).
Where “and” joins values, the source holds several entries; their conditions need not be identical. Equal entries are not always repeated. Out of some 410,000 compounds screened, about 5,000 (1.2%) were called active. The inconclusive results got no clear call from the source; some entries with a clear call stand among them for comparison. Calls follow the shape of the dose curve; as a rule, active = well fitted inhibition curve with a large enough effect; inconclusive = small, poorly fitted or top-dose-only effect; inactive = no such curve, though single readings can be large or run the other way. A potency beside an inconclusive call is a rough fit, not a confirmed value.

experiment: qHTS for Inhibitors of TGF-b; conditions: HepG2 CAGA-GFP TGF-b/SMAD3 reporter, GFP fluorescence, 18 h, TGF-beta stimulated, 500 pg/mL final; series mostly up to 46.1 µM; activity, negative = inhibition: at the top concentration; also: nearly all actives have a fitted effect of over 65% in size
Method in brief: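 Read-out: total well GFP (ex488/em500-530) summed from mean per-cell fluorescence. Cells: HEPG2 CAGA-GFP, 1% FBS DMEM, 18 h at 37 degrees C with 500 pg/mL final TGF-beta. Unstimulated wells served as the full-inhibition control; stimulated DMSO wells = 0%.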
% is scaled to controls: 0 for no effect and ±100 for the full control effect; potency is read from the fitted curve at half-maximal effect; tags tell the direction and shape of the fitted curve.

Question: Which Potency does the source give for `CCOc1cc(/C=C2\SC(=O)N=C2N)ccc1O` here?
Answer: The Potency was inconclusive: 3.55 µM [inhibitor, partial curve, poor fit].

Question: With `CC(=O)c1c(C)oc2ccc(N(C(=O)c3ccncc3)S(=O)(=O)c3ccc(F)cc3C)cc12` as the molecule, how does the Potency read?
Answer: Its Potency is inconclusive: 17.8 µM [inhibitor, single point].

Question: For `Cc1cccc(C(=O)Nc2sc3c(c2C(=O)O)CCCC3)c1`, which Potency is on record?
Answer: The Potency was “inactive”.

Question: For `Cc1cc(C)cc(NC(=O)CN(C)S(=O)(=O)c2ccc3c(c2)CCC(=O)N3)c1`, which “activity, negative = inhibition” value is on record?
Answer: The value was inactive: -7.04%.

Question: With `COc1ccc(NS(=O)(=O)c2ccc(C(=O)N3CCCCCC3)cc2)cc1` as the molecule, how does the Potency read?
Answer: The Potency was inconclusive: 6.31 µM [inhibitor, single point].

Question: Which Potency does the source give for `O=C(CSc1nc2ccc(Cl)cc2[nH]1)NCCc1ccc(Cl)cc1` here?
Answer: The Potency was inconclusive: 35.5 µM [inhibitor, single point].

Question: With `Cc1ccc2ncc(C(=O)Nc3cccc(C(F)(F)F)c3)c(=O)n2c1` as the molecule, how does the “activity, negative = inhibition” value read?
Answer: The value was inactive: 7.32%.

Question: With `CCCCN(C)CCCNC(=O)Cn1c(=O)sc2ccccc21` as the molecule, how does the Potency read?
Answer: Its Potency is inconclusive: 3.55 µM [inhibitor, partial curve, poor fit].

Question: For `Cc1cc(C(C)(C)C)cc(C)c1S(=O)(=O)N1CC(=O)Nc2ccccc21`, which Potency is on record?
Answer: The Potency was inconclusive: 17.8 µM [inhibitor, single point].

Question: For `Cc1ccc(NS(=O)(=O)c2ccc(-c3cnc(C4CC4)o3)cc2)cc1`, which Potency is on record?
Answer: The Potency was inconclusive: 17.8 µM [inhibitor, single point].

Question: Which “activity, negative = inhibition” value does the source give for `O=C(N/N=C/c1cccc(C(F)(F)F)c1)c1ccc(O)cc1` here?
Answer: Its value is inactive: 5.17%.

Question: With `O=C(NC1CCCCC1)Sc1ccc(Cl)cc1` as the molecule, how does the “activity, negative = inhibition” value read?
Answer: The value was inactive: -2.56%.

Question: For `O=[N+]([O-])c1cc(S(=O)(=O)C(F)(F)F)ccc1Sc1nc2ccccc2[nH]1`, which Potency is on record?
Answer: The Potency was inconclusive: 28.2 µM [inhibitor, single point].

Question: With `CCCNC(=O)CCn1nc(-c2ccc(C)cc2)c2ccccc2c1=O` as the molecule, how does the Potency read?
Answer: Its Potency is inconclusive: 11.2 µM [inhibitor, partial curve].

Question: For `C[C@H]1CN([C@@H](C)CO)S(=O)(=O)c2ccc(Br)cc2O[C@H]1CN(C)C(=O)c1cccc(F)c1`, which Potency is on record?
Answer: Its Potency is inconclusive: 6.31 µM [inhibitor, single point].

Question: Which Potency does the source give for `N#Cc1c(SCC(=O)O)nc(-c2ccccc2)c2c1CCCC2` here?
Answer: The Potency was inconclusive: 2.82 µM [inhibitor, single point].

Question: For `Cc1ccccc1Cn1c(=N)n(CC(=O)c2ccc([N+](=O)[O-])cc2)c2ccccc21`, which “activity, negative = inhibition” value is on record?
Answer: Its value is inactive: 20.3%.

Question: Which Potency does the source give for `O=C(c1ccco1)N(CCCN1CCOCC1)c1nc(-c2ccc(F)cc2)cs1` here?
Answer: The Potency was inconclusive: 35.5 µM [inhibitor, single point].

Question: With `O=c1[nH]cnc2c1nc(SCc1ccccc1)n2C1OC(CO)C(O)C1O` (centres undefined) as the molecule, how does the Potency read?
Answer: The Potency was inconclusive: 6.31 µM [inhibitor, single point].

Question: With `C=CCSc1nc2ccsc2c(=O)n1-c1cccnc1` as the molecule, how does the Potency read?
Answer: The Potency was inconclusive: 0.251 µM [inhibitor, full curve, poor fit].

Question: Which “activity, negative = inhibition” value does the source give for `CCn1c(SCC(=O)Nc2ccc(C)cc2)nc2sc3c(c2c1=O)CCN(C)C3` here?
Answer: Its value is inactive: -6.72%.

Question: For `Cc1cc2sc(C(=O)O)c(C)c2s1`, which Potency is on record?
Answer: Its Potency is inconclusive: 1.26 µM [inhibitor, partial curve, poor fit].

Question: Which Potency does the source give for `O=C(CSc1ccccn1)Nc1ccc(N2CCOCC2)cc1` here?
Answer: The Potency was inconclusive: 35.5 µM [inhibitor, single point].

Question: With `O=c1ccn([C@@H]2O[C@H](CNS(=O)(=O)C3CC3)[C@@H](O)[C@H]2O)c(=O)[nH]1` as the molecule, how does the Potency read?
Answer: The Potency was inconclusive: 2 µM [inhibitor, partial curve, poor fit].

Question: For `CC(=O)c1cccc(NS(=O)(=O)c2ccc(C(=O)Nc3ccccc3)cc2)c1`, which Potency is on record?
Answer: The Potency was inconclusive: 1.58 µM [inhibitor, full curve, poor fit].

Question: Which Potency does the source give for `Cc1oc(-c2ccccc2F)nc1CSCC(=O)NC1CCC(C)CC1` (centres undefined) here?
Answer: The Potency was inconclusive: 15.8 µM [inhibitor, single point].

Question: With `COC(=O)CNC(c1ccccc1Cl)c1cc(Br)ccc1NS(=O)(=O)c1ccc(C)cc1` (centres undefined) as the molecule, how does the Potency read?
Answer: The Potency was inconclusive: 7.94 µM [inhibitor, partial curve, poor fit].

Question: Which “activity, negative = inhibition” value does the source give for `COc1ccc(CCNS(=O)(=O)c2ccc(OC)c(OC)c2)cc1OC` here?
Answer: The value was inactive: 12.2%.

Question: With `COc1ccc(S(=O)(=O)N2CCC(c3nnc(-c4ccccc4C)o3)CC2)c(OC)c1` as the molecule, how does the Potency read?
Answer: Its Potency is inconclusive: 6.31 µM [inhibitor, full curve].

Question: With `Cc1noc2ncnc(N3CCCC(C(=O)NCCC(C)C)C3)c12` (centres undefined) as the molecule, how does the Potency read?
Answer: The Potency was inconclusive: 0.282 µM [inhibitor, full curve, poor fit].

Question: With `OCC1(Cc2ccccc2Cl)CCN(C/C=C/c2ccccc2)CC1` as the molecule, how does the Potency read?
Answer: Its Potency is inconclusive: 22.4 µM [inhibitor, single point].

Question: With `Fc1ccccc1Cc1noc(CN2CCN(C/C=C/c3ccccc3)CC2)n1` as the molecule, how does the Potency read?
Answer: Its Potency is inconclusive: 35.5 µM [inhibitor, single point].

Question: Which Potency does the source give for `Cc1ccccc1C(=O)N1CCc2c([nH]c3ccccc23)C1C(F)(F)F` (centres undefined) here?
Answer: The Potency was inconclusive: 12.6 µM [inhibitor, single point].

Question: Which Potency does the source give for `COCCn1nnnc1CN1CCC(NC(=O)Nc2cccc(OC)c2)CC1` here?
Answer: Its Potency is inconclusive: 25.1 µM [inhibitor, single point].

Question: For `Cc1nn2c(=O)cc(COC(=O)c3ccccc3NC(=O)C(C)C)nc2s1`, which “activity, negative = inhibition” value is on record?
Answer: The value was inactive: -0.0756%.

Question: For `CC(C)=CC1C(C(=O)Nc2ccc(Br)cn2)C1(C)C` (centres undefined), which Potency is on record?
Answer: Its Potency is inconclusive: 35.5 µM [inhibitor, single point].

Question: For `Cc1ccc(-n2nc3c(=O)n(CCCC(=O)NCc4ccc(F)cc4)nc(C)c3c2C)cc1`, which Potency is on record?
Answer: The Potency was inconclusive: 631 nM [inhibitor, partial curve, poor fit] and inconclusive: 631 nM [inhibitor, full curve, poor fit].

Question: With `C/C(=N\NC(=O)Cc1ccc(Cl)cc1)c1ccc(F)cc1` as the molecule, how does the “activity, negative = inhibition” value read?
Answer: Its value is inactive: 29.2%.

Question: With `CCN(CCNC(=O)C1CCCN(Cc2nc(-c3ccc(OC)cc3)oc2C)C1)c1ccccc1` (centres undefined) as the molecule, how does the Potency read?
Answer: The Potency was inconclusive: 22.4 µM [inhibitor, single point].

Question: Which Potency does the source give for `CC(O)(c1ccccc1)c1nc(-c2cc3ccccc3o2)cs1` (centres undefined) here?
Answer: The Potency was inconclusive: 17.8 µM [inhibitor, single point].

Question: Which Potency does the source give for `CC(C)NCC(O)COc1ccc2c(c1)CCC2` (centres undefined) here?
Answer: The Potency was inconclusive: 17.8 µM [inhibitor, single point].

Question: With `COC(=O)c1ccc(N(CC(=O)NCC2CCCO2)C(=O)CCC(=O)Nc2cc(C)on2)cc1` (centres undefined) as the molecule, how does the Potency read?
Answer: The Potency was inconclusive: 3.16 µM [inhibitor, single point].

Question: Which “activity, negative = inhibition” value does the source give for `Cc1cc(C(F)(F)F)c2c(N)c(C(=O)Nc3c(Cl)cccc3Cl)sc2n1` here?
Answer: Its value is inactive: -5.06%.

Question: For `CCn1c(N2CCC(Cc3ccccc3)CC2)nc2c1c(=O)[nH]c(=O)n2C`, which Potency is on record?
Answer: Its Potency is inconclusive: 2.82 µM [inhibitor, single point].

Question: With `COc1ccc(C(=O)NCc2nnc(SCC(=O)c3ccccc3)n2C)cc1OC` as the molecule, how does the Potency read?
Answer: Its Potency is inconclusive: 2.82 µM [inhibitor, partial curve, poor fit].

Question: For `NC(Cc1ccc(Cl)cc1)c1csc(NC(=O)NCC2CCCCC2)n1` (centres undefined), which Potency is on record?
Answer: The Potency was inconclusive: 35.5 µM [inhibitor, single point].

Question: Which Potency does the source give for `C[C@H](CO)N1C[C@H](C)[C@@H](CN(C)C(=O)NC2CCCCC2)Oc2ccc(NC(=O)Nc3ccc(C(F)(F)F)cc3)cc2C1=O` here?
Answer: The Potency was inconclusive: 35.5 µM [inhibitor, single point].

Question: For `COc1ccccc1NC(=O)Nc1ccc(-n2ccc(C(F)(F)F)n2)cc1`, which Potency is on record?
Answer: The Potency was inconclusive: 28.2 µM [inhibitor, single point].

Question: With `CCCCCCN1C[C@@H](O)[C@H](n2cc(-c3ccc(F)cc3)nn2)C[C@@H]1c1ccccc1` as the molecule, how does the Potency read?
Answer: Its Potency is inconclusive: 28.2 µM [inhibitor, single point].

Question: With `Cc1ccc(NC(=O)C2CC(=O)N(C(C)C)C2)cc1Cl` (centres undefined) as the molecule, how does the “activity, negative = inhibition” value read?
Answer: Its value is inactive: 0.657%.

Question: For `O=S(=O)(Nc1ccc(Cl)cc1)c1ccc2c(c1)CCO2`, which Potency is on record?
Answer: Its Potency is inconclusive: 12.6 µM [inhibitor, single point].

Question: For `CCC/C=C/c1ccc(CN2C(C(C)C)C(=O)N(Cc3cn(Cc4ccco4)nn3)CCS2(=O)=O)cc1` (centres undefined), which Potency is on record?
Answer: Its Potency is active: 11.2 µM.

Question: For `CCNC(=O)c1c(NC(=O)c2cc(=O)c3ccc(C)c(C)c3o2)sc2c1CCCC2`, which “activity, negative = inhibition” value is on record?
Answer: The value was inactive: -0.232%.

Question: With `O=C(CSc1nc(-c2ccccc2)cc(C(F)(F)F)n1)c1cccc([N+](=O)[O-])c1` as the molecule, how does the “activity, negative = inhibition” value read?
Answer: Its value is inactive: -8.39%.

Question: Which “activity, negative = inhibition” value does the source give for `Cc1ccccc1-c1nc(NC(=O)CSc2ncnc3sc4c(c23)CCCC4)ns1` here?
Answer: The value was inactive: 1.05%.

Question: For `CC(C)Oc1ccc(CNC(=O)C2CCN(C(=O)N3CCOc4ccc(Cl)cc43)CC2)cc1`, which Potency is on record?
Answer: Its Potency is inconclusive: 35.5 µM [inhibitor, single point].

Question: Which Potency does the source give for `Cc1cccc(NC(=O)CSc2nc3ccccc3c3nc(CCn4cncc4C)nn23)c1` here?
Answer: Its Potency is inconclusive: 35.5 µM [inhibitor, single point].

Question: Which Potency does the source give for `O=C1/C(=C/c2ccncc2)SC(=S)N1Nc1ccccc1` here?
Answer: Its Potency is inconclusive: 35.5 µM [inhibitor, single point].

Question: With `Cc1ccc(C(=O)N/C(=C\c2ccc(-c3ccccc3[N+](=O)[O-])o2)C(=O)NCCCN2CCOCC2)cc1` as the molecule, how does the Potency read?
Answer: The Potency was inconclusive: 15.8 µM [inhibitor, single point].

Question: For `Nc1cc(S(=O)(=O)N2CCCCC2)ccc1N1CCCCC1`, which Potency is on record?
Answer: Its Potency is inconclusive: 28.2 µM [inhibitor, single point].

Question: For `CCOC(=O)C1CCCN(S(=O)(=O)c2ccc3c4c2CC(=O)N4CC(C)S3)C1` (centres undefined), which Potency is on record?
Answer: The Potency was inconclusive: 35.5 µM [inhibitor, single point].

Question: For `O=c1cc2nc(-c3ccccc3)nc(SCc3cccc(Br)c3)n2[nH]1`, which Potency is on record?
Answer: Its Potency is inconclusive: 7.08 µM [inhibitor, full curve, poor fit].

Question: With `CC(C)(C)c1ccc(C(=O)N2CCC2(C)C(=O)Nc2cccc3ccccc23)cc1` (centres undefined) as the molecule, how does the “activity, negative = inhibition” value read?
Answer: The value was inactive: 10.7%.

Question: For `Cc1cc(C)c(NC(=O)c2ccc(CN3CCc4ccccc4C3)cc2)c(C)c1`, which Potency is on record?
Answer: The Potency was inconclusive: 8.91 µM [inhibitor, partial curve, poor fit].
